Article PMC4336329 (PLoS ONE, 2015)
About 2,200 (0.71%) of roughly 310,000 compounds showed an effect of 50% or more. The effect is printed as a negative number. Some of the results follow.

Target: human ether-à-go-go-related gene (hERG) potassium channel (human, UniProt Q12809)
Assay: primary screen, population patch clamp on CHO cells stably expressing hERG

Sequence of human ether-à-go-go-related gene (hERG) potassium channel (Q12809 whole entry, looked up): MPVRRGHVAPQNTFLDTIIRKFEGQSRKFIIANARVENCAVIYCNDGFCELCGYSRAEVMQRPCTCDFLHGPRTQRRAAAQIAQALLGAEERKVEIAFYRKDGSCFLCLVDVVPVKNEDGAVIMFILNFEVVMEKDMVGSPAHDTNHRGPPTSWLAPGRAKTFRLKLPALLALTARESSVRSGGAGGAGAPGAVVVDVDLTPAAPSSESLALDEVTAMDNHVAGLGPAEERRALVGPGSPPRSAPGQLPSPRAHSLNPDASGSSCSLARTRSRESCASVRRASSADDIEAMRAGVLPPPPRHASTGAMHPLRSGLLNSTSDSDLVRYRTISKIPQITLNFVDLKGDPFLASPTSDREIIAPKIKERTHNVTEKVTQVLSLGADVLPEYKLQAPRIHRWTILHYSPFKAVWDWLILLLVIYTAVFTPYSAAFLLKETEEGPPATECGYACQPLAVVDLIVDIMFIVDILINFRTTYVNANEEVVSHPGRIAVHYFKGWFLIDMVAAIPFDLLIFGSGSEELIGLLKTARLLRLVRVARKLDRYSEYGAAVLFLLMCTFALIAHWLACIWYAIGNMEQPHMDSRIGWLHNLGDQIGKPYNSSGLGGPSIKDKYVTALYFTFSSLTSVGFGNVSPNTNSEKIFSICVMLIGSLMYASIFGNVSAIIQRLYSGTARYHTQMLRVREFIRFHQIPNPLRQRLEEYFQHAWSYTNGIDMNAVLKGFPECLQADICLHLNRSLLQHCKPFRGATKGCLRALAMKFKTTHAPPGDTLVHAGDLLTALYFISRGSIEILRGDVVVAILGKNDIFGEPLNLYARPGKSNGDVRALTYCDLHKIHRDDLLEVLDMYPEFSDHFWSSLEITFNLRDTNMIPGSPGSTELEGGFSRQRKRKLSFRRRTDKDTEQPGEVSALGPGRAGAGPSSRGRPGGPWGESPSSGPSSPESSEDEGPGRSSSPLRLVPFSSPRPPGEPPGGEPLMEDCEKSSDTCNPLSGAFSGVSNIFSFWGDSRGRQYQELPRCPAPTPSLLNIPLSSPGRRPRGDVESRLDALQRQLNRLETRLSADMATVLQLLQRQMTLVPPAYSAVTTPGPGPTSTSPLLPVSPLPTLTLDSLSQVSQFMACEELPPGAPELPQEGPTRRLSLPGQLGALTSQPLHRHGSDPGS

| SMILES | hERG current change (%, negative = inhibition) at 1uM [%] |
| --- | --- |
| Cc1cccc(/C(N)=N/OC(=O)c2cccc3ccccc23)c1 | 15.3 |
| CCN(CC)c1nc(N2CCOCC2)nc2ccccc12.Cl | -24.1 |
| COc1ccccc1CN1CCNC(=O)C1CC(=O)NCC1CCOCC1 (centres unmarked) | 2.5 |
| Cc1cc(Cn2nc(-c3ccccc3)cc2C(=O)NCc2cccc(C(F)(F)F)c2)on1 | 15.7 |
| CC(=O)CCS(=O)(=O)c1ccc(C)c(C)c1 | 5.75 |
| Cc1cc(C)c2c(N)c(C(=O)Nc3ccccc3F)sc2n1 | 16.3 |
| COc1ccc(C(=O)C2CCCN(C3Cc4ccccc4C3)C2)cc1OC (centres unmarked) | -33.2 |
| CC1=C(C(=O)OC2CCCCCCC2)C(c2ccc(O)cc2)NC(=O)N1 (centres unmarked) | 15 |
| Cc1ccc(NC(=O)CC2SC(=NCC3CCCO3)NC2=O)cc1Cl (centres unmarked) | -0.329 |
| Cc1cc(=O)oc2c3c(cc(OCC(=O)Nc4cccnc4)c12)OC(C)(C)CC3 | 18.4 |
| Cc1cc(=O)n2[nH]c(CCC(=O)O)nc2n1 | 13.9 |
| COc1ccc(/C=C/c2c(-c3cccc(C)c3)oc3ccc(N4CCOCC4)cc23)cc1 | 18.5 |
| CC/C(=N\Nc1ccccc1[N+](=O)[O-])c1ccc(O)cc1 | 16.6 |
| CCCOC(=O)Cc1c(O)c2ccccc2[nH]c1=O | 13.6 |
| Cc1cccc(NC(=O)c2ccccc2[N+](=O)[O-])n1 | 13.1 |
| O=C(c1ccccc1)N1CCCC(c2nc3c(nnn3Cc3ccccc3)c(=O)[nH]2)C1 (centres unmarked) | 4.03 |
| CCCc1nc2oc3c(NCC4CCCO4)ncnc3c2c2c1COC(C)(C)C2 (centres unmarked) | -1.47 |
| CC(C)C1Nc2ccc(S(=O)(=O)N3CCOCC3)cc2NC1=O (centres unmarked) | 13.5 |
| O=C1c2ccccc2NC(c2ccc(Br)s2)N1O (centres unmarked) | 9.82 |
| CS(=O)(=O)N(CC(=O)Nc1ccc(S(=O)(=O)N2CCCC2)cc1)c1ccccc1 | 19 |
| O=C(NCCNC(=O)c1ccccc1Cl)c1ccco1 | 18.9 |
| Nc1c(-c2ccc(Cl)cc2)cnn1C1CCS(=O)(=O)C1 (centres unmarked) | 0.195 |
| O=C(CSc1nccc(=O)[nH]1)NN(c1ccccc1)c1ccccc1 | 9.88 |

| SMILES | hERG current change (%, negative = inhibition) at 1uM [%] |
| --- | --- |
| CCOc1ccc(CC(=O)N2N=C(C)CC2(O)C(F)(F)F)cc1 (centres unmarked) | 6.72 |
| CC(=NCCCO)c1c(O)n(Cc2ccccc2)c(=O)[nH]c1=O | 10.2 |
| CCN(CC)CCCN1C(=O)c2oc3ccccc3c(=O)c2C1c1cccs1 (centres unmarked) | 18.7 |
| COc1cc(/C=C2/C(=O)NN(c3ccccc3)C2=O)cc(Br)c1O | 13.9 |
| CCCn1c(Sc2nnnn2-c2ccccc2)n[nH]c1=O | 9.94 |
| Cc1ccc(/C=C/C(=O)O)cc1S(=O)(=O)N(CCO)CCO | 10.6 |
| O=S(=O)(NC1CC2CCC1C2)c1ccc(Cl)cc1 (centres unmarked) | 15.8 |
| COc1cccc(-n2cnc3sc(C)cc3c2=O)c1 | 5.64 |
| CN(C(=O)COC(=O)C1CCN(S(=O)(=O)c2c(Cl)cccc2Cl)CC1)C1CCS(=O)(=O)C1 (centres unmarked) | 9.29 |
| Cc1ccc(N2N=C(c3ccc(Br)cc3)CCC2=O)cc1 | 10.3 |
| O=C1c2ccccc2NC(c2ccccc2)N1Cc1ccco1 (centres unmarked) | 3.77 |
| COc1ccc(/C=N/NC(=S)Nc2ccccc2)cc1COc1ccc(F)cc1F | 13.5 |
| COC(=O)c1cc2oc3ccccc3c2n1CC(=O)Nc1ccccc1OC | 8.98 |
| Cc1c(NC(=O)COC(=O)C2(c3ccc(F)cc3)CCCC2)c(=O)n(-c2ccccc2)n1C | 2.46 |
| O=C(O)CCc1ccc(-c2ccc(Cl)cc2)n1CC(=O)Nc1ccccc1 | 15.7 |
| O=C(COC(=O)c1ccc(Br)o1)Nc1ncc([N+](=O)[O-])s1 | 11.1 |
| Cc1ccccc1-c1nc(-c2ccc(Br)o2)no1 | 5.73 |
| O=C(O)c1cccc2cc(-c3ccccc3)oc(=O)c12 | 13.5 |
| CCOc1ccc(NC(=O)C2CCN(S(=O)(=O)c3c(C)n[nH]c3C)CC2)cc1 | 2.16 |
| O=C(CSc1nnnn1-c1ccc(F)cc1)c1ccc(O)c(O)c1 | -12 |
| O=C(CCc1ccccc1)NNC(=O)Nc1ccccc1 | 8.86 |
| CC(NS(=O)(=O)/C=C/c1ccccc1)c1ccccc1 (centres unmarked) | 8.19 |
| Cc1cc(C)nc(N(C#N)CCOc2ccc(Cl)cc2)n1 | 10.5 |

| SMILES | hERG current change (%, negative = inhibition) at 1uM [%] |
| --- | --- |
| CC(C)(C)NC(=O)NC(=O)CN1CCN(S(=O)(=O)/C=C/c2ccccc2)CC1 | 15.2 |
| Cc1nnc(SCc2ccc(C(=O)O)cc2)s1 | 0.773 |
| COc1cccc(C(=O)CC(C(=O)O)c2ccc(Cl)cc2)c1 (centres unmarked) | 15.4 |
| CS(=O)(=O)c1[nH]nc(-c2ccccc2Cl)c1C#N | 11.5 |
| CC(C)OC(=O)C1C(=O)CC(C)(O)C(C(=O)OC(C)C)C1c1ccc([N+](=O)[O-])cc1 (centres unmarked) | 7.14 |
| Cc1ccc(Sc2ncccc2N)cc1 | 13.3 |
| CC(=O)N/C(N)=N/c1nc2cc([N+](=O)[O-])ccc2o1 | 12.4 |
| COc1nc(-c2cccs2)cc(-c2ccc(C)cc2)c1C#N | 20.2 |
| NC(=O)c1ccc[n+](Cc2ccc(-c3ccccc3)cc2)c1.[Cl-] | 9.77 |
| O=C(NCCCN1CCOCC1)C1CC(=O)N(C2CCCCC2)C1 (centres unmarked) | 11 |
| CCC(=O)N1CCc2cc(S(=O)(=O)NCCC(=O)Nc3cc(C)cc(C)c3)ccc21 | 8.68 |
| COc1ccc(C(C)NC(=O)C23CC4CC(CC(C4)C2)C3)cc1OC (centres unmarked) | 12.4 |
| Cc1cc(C(=O)CSc2nnc(-c3ccc(OC(F)F)cc3)o2)c(C)n1Cc1cccs1 | 24.7 |
| CCC(CC)C1=NN2C(=N)/C(=C\c3cc(C)n(-c4cccc(C)c4)c3C)C(=O)N=C2S1 | 5.59 |
| CCOC(=O)C(=O)Nc1ncc(Cl)s1 | 11.1 |
| CCCn1c(=N)n(CC(O)c2ccco2)c2ccccc21.Cl (centres unmarked) | -13.8 |
| CC(=O)Nc1ccc(S(=O)(=O)N2CCC(N(C)CCC(C)C)CC2)cc1.Cl | -15.2 |
| COc1ccc2cc(CN(C(=O)Nc3ccccc3)C3CCCC3)c(=O)[nH]c2c1 | -19.5 |
| CCOc1ccc(C(=O)CN2CCN(S(=O)(=O)c3ccc(F)cc3)CC2)cc1 | -13.8 |
| Cc1cc(NC(=O)c2c(-c3c(Cl)cccc3Cl)noc2C)n(C)n1 | 14.7 |
| C=CCN1C(=O)N(c2ccc(F)cc2)C(=O)C1CC(=O)Nc1ccc(Cl)cc1 (centres unmarked) | 16.9 |
| CC(C)c1ccc(CC(NC(=O)c2ccccc2)C(=O)NCC(=O)O)cc1 (centres unmarked) | 9.01 |
| O=S(=O)(NC(=S)NC1CCCCC1)c1ccc(Br)cc1 | 11.1 |

| SMILES | hERG current change (%, negative = inhibition) at 1uM [%] |
| --- | --- |
| CS(=O)(=O)c1ccc(C(=O)N2CCN(Cc3ccccc3)CC2)cc1 | -20.6 |
| CCCC(=O)n1nc(-c2ccc(OC)cc2)nc1N | 0.27 |
| CCOC(=O)c1ccc2c(c1)nc(SCc1cn3ccsc3n1)n2CC | -2.03 |
| COc1ccc2[nH]c(=O)c(CN(CCN(C)C)C(=O)NCc3ccccc3)cc2c1 | 13.8 |
| Cc1c(NC(=O)c2ccc3c4c(cccc24)CC3)c(=O)n(-c2ccccc2)n1C | 15.3 |
| COc1ccc(C(=O)NNC(=O)c2ccccc2[N+](=O)[O-])cc1[N+](=O)[O-] | -0.396 |
| COC(=O)CN1C(=O)Nc2ccc(Cl)cc2C1c1ccccc1 (centres unmarked) | 22.6 |
| O=C1NC(=S)N(C(=O)c2ccc(F)cc2)/C1=C/c1cccnc1 | 6.14 |
| CN(C)C(=O)c1cn(-c2ccccc2)nc1-c1cc2ccccc2oc1=O | -5.37 |
| C/C(N)=C(/C#N)C(=O)COC(=O)[C@@H](NC(=O)c1ccccc1Cl)C(C)C | 7.48 |
| COc1ccc(OC)c(NC(=O)CSc2ccc3nnc(-c4cccnc4)n3n2)c1 | -19.3 |
| O=C(OCc1nnc(-c2ccccc2)o1)c1cccnc1Cl | 9.52 |
| CN(C)CCN(C(=O)CN1C(=O)c2ccccc2C1=O)c1nc2cc3c(cc2s1)OCO3.Cl | 7.04 |
| COc1ccccc1NC(=O)NCc1ccc(C)n1C | 15.5 |
| CC(C)N(C(=O)CSc1nc2ccccc2n1-c1ccccc1)C(C)C | 7.89 |
| CCOC(=O)N1CCN(c2nc(-c3ccccc3)c3cc(C)ccc3n2)CC1 | 8.83 |
| COc1ccc(NS(=O)(=O)c2cn(C)c(=O)n(C)c2=O)c(OC)c1 | 10.7 |
| O=C(c1ccc(F)cc1)c1c[nH]c(C(=O)NCc2cccnc2)c1 | 12.1 |
| O=C(Oc1coc(CSc2ncccn2)cc1=O)c1ccco1 | 8.47 |
| O=C(CSc1ccc2nnc(CCNC(=O)c3ccccc3)n2n1)NCc1ccc(F)cc1 | 10.4 |
